The other results are listed elsewhere or left out.

The assay has as its system HSkMC (human skeletal muscle cells). As to the kind of experiment: cytotoxicity call (relative viability < 0.9). The following applies: 10 µM.
`COc1ccc(S(=O)(=O)Nc2ccc3c(c2)CC(=O)N([C@H](C)CO)C[C@@H](C)[C@H](CN(C)S(C)(=O)=O)O3)cc1`: the cytotoxicity call was “inactive”. As for `CC(=O)Nc1nnc2n1CCS2`, the cytotoxicity call is “inactive”. `C[C@@H](O)C#Cc1cnc2c(c1)C(=O)N([C@@H](C)CO)C[C@H](C)[C@@H](CN(C)C(=O)CN1CCOCC1)O2`: the cytotoxicity call is “inactive”. In the case of `COc1ccc(S(=O)(=O)N(C)C[C@@H]2OCCCC[C@@H](C)Oc3ccc(NC(=O)C4CCCCC4)cc3C(=O)N([C@H](C)CO)C[C@H]2C)cc1`, the cytotoxicity call is “inactive”. As to `C[C@@H]1CN([C@H](C)CO)C(=O)c2cc(NC(=O)Nc3ccc(F)cc3)ccc2O[C@@H](C)CCCCO[C@H]1CN(C)Cc1ccccc1`, the cytotoxicity call is “active”. Take `CC#CCn1c(N2CCC[C@@H](N)C2)nc2c1c(=O)n(Cc1nc(C)c3ccccc3n1)c(=O)n2C`: the cytotoxicity call is “inactive”. For the compound `CCCCc1c(C)nc2ccc(Br)cc2c1SC(N)N`, the cytotoxicity call is “inactive”. For `C[C@H](CO)N1C[C@H](C)[C@@H](CN(C)S(=O)(=O)c2ccccc2)Oc2ccc(NS(=O)(=O)c3ccccc3)cc2CC1=O`, the cytotoxicity call was “inactive”. Next, `C[C@H](CO)N1C[C@H](C)[C@H](CN(C)S(=O)(=O)c2ccccc2)Oc2ccc(NC(=O)CCN3CCOCC3)cc2CC1=O`: “inactive”; `C[C@@H]1CN([C@H](C)CO)C(=O)Cc2cc(NS(=O)(=O)c3cn(C)cn3)ccc2O[C@H]1CN(C)Cc1ccc2c(c1)OCO2`: “inactive”; `C[C@H](CO)N1C[C@H](C)[C@H](CN(C)S(=O)(=O)c2ccc(F)cc2)Oc2ccc(NS(C)(=O)=O)cc2C1=O`: “inactive”. As for `Cc1noc(C)c1S(=O)(=O)N(C)C[C@H]1Oc2ccc(NC(=O)NC3CCCCC3)cc2CC(=O)N([C@H](C)CO)C[C@@H]1C`, the entry is “inactive”. `COc1ccc(NC(=O)N(C)C[C@@H]2OCCCC[C@@H](C)Oc3ccc(NC(=O)Nc4ccccc4)cc3C(=O)N([C@H](C)CO)C[C@@H]2C)cc1`: the cytotoxicity call was “inactive”. As to `Cn1cc(N2C[C@]3(CNCCOC3)OCC2=O)cn1`, the cytotoxicity call was “inactive”. In the case of `CC(C)NC(=O)N(C)C[C@H]1Oc2c(NS(=O)(=O)c3cn(C)cn3)cccc2C(=O)N([C@@H](C)CO)C[C@H]1C`, the cytotoxicity call was “inactive”. With `CCOc1ccc(Nc2nc3c(=O)nc[nH]c3n2[C@H]2O[C@@H](CO)[C@@H](O)[C@@H]2O)cc1`, the cytotoxicity call was “inactive”. For `COc1ccc(S(=O)(=O)Nc2ccc3c(c2)C(=O)N([C@H](C)CO)C[C@H](C)[C@@H](CN(C)Cc2ccncc2)O3)cc1`, the cytotoxicity call is “inactive”.

With `C[C@H](CO)N1C[C@H](C)[C@H](CN(C)S(=O)(=O)c2cccs2)Oc2ncc(C#Cc3ccccc3)cc2C1=O`, the cytotoxicity call was “inactive”. As to `COc1cccc([C@@H](NC(=O)C2CCN(Cc3ccc(Oc4ccccc4)cc3)CC2)c2ccccn2)c1`, the cytotoxicity call is “inactive”. For `C[C@H]1CN([C@@H](C)CO)C(=O)Cc2cc(NC(=O)Cc3cn(C)c4ccccc34)ccc2O[C@H]1CN(C)S(=O)(=O)c1cn(C)cn1`, the cytotoxicity call is “inactive”. `C[C@H]1CN([C@@H](C)CO)C(=O)Cc2cc(NC(=O)C3CC3)ccc2O[C@H]1CN(C)C(=O)Nc1ccc(F)cc1`: the cytotoxicity call is “inactive”. For the compound `C[C@H](CO)N1C[C@H](C)[C@@H](CN(C)C(=O)c2cccc(F)c2)Oc2cc(C#CC3CC3)ccc2S1(=O)=O`, the cytotoxicity call was “inactive”. Take `Cc1cc(C(=O)Nc2cccc3c2O[C@H](CN(C)S(=O)(=O)c2ccccc2)[C@@H](C)CN([C@@H](C)CO)C3=O)n(C)n1`: the cytotoxicity call was “inactive”.

With `C[C@@H]1CCCCO[C@@H](CN(C)S(C)(=O)=O)[C@@H](C)CN([C@@H](C)CO)C(=O)c2cc(NS(=O)(=O)c3ccc(F)cc3)ccc2O1`, the cytotoxicity call is “inactive”. Next, `C[C@H](CO)N1C[C@H](C)[C@@H](CN(C)CC2CCCCC2)OCCCC[C@H](C)Oc2ccc(NS(=O)(=O)c3cccs3)cc2C1=O`: “inactive”; `C[C@@H]1CCCCO[C@@H](CN(C)Cc2ccncc2)[C@H](C)CN([C@@H](C)CO)C(=O)c2cc(NS(=O)(=O)c3ccc(Cl)cc3)ccc2O1`: “inactive”. Turning to `COCC#Cc1cnc2c(c1)C(=O)N([C@H](C)CO)C[C@H](C)[C@@H](CN(C)C(=O)Nc1cc(F)ccc1F)O2`, the cytotoxicity call was “inactive”. Take `CC(C)NC(=O)Nc1ccc2c(c1)CC(=O)N([C@H](C)CO)C[C@H](C)[C@H](CN(C)S(=O)(=O)c1ccc(F)cc1)O2`: the cytotoxicity call is “inactive”. Next, `Cc1ccc(NC(=O)c2cc(=O)[nH]c(=O)[nH]2)cc1`: “inactive”; `CN(C)[C@@H]1C(=O)[C@@H](C(=O)NCNCCCC[C@H](N)C(=O)O)C(=O)[C@@]2(O)C(=O)[C@@H]3C(=O)c4c(O)cccc4[C@@](C)(O)[C@H]3C[C@@H]12`: “inactive”.

`Cc1noc(C)c1NC(=O)Nc1ccc2c(c1)C(=O)N([C@@H](C)CO)C[C@H](C)[C@@H](CN(C)S(=O)(=O)c1ccc(F)cc1)OCCCC[C@H](C)O2`: the cytotoxicity call was “inactive”. For `C[C@H]1CN([C@@H](C)CO)S(=O)(=O)c2ccc(-c3cccc(C(=O)N(C)C)c3)cc2O[C@H]1CN(C)C(=O)Cc1ccccn1`, the cytotoxicity call was “inactive”. For the compound `C/C(=C\CO)CC[C@H](C)CCC[C@H](C)CCCC(C)C`, the cytotoxicity call was “inactive”. As for `Nc1nc(F)nc2c1ncn2C1OC(COP(=O)(O)O)C(O)C1O` (stereo not given), the cytotoxicity call is “inactive”. Take `CN(C)C(=O)C[C@H]1CC[C@H](NC(=O)C2CC2)[C@H](CO)O1`: the cytotoxicity call is “inactive”. For the compound `CO[C@H](CN(C)S(=O)(=O)c1cccc(Cl)c1)[C@@H](C)CN([C@H](C)CO)S(=O)(=O)c1cccc(Cl)c1`, the cytotoxicity call is “inactive”. Take `CC[C@H](C)[C@@H]([C@@H](CC(=O)N1CCC[C@H]1[C@H](OC)[C@@H](C)C(=O)N[C@@H](Cc1ccccc1)c1nccs1)OC)N(C)C(=O)[C@@H](NC(=O)[C@H](C(C)C)N(C)C)C(C)C`: the cytotoxicity call is “active”. Next, `C[C@H](CO)N1C[C@H](C)[C@@H](CN(C)S(=O)(=O)c2ccccc2)Oc2ncc(C#CCN(C)C)cc2C1=O`: “inactive”; `O=C(NO)c1ccc(-c2cn(CC[C@@H]3OC(=O)[C@H](Cc4ccccc4)N4CC5=CC(=O)[C@H](C6CC6)[C@H]5[C@H]34)nn2)cc1`: “inactive”; `CC(C)C(=O)Nc1cccc(Cl)c1`: “inactive”.

For the origin of these results see the antibiotic and cytotoxicity screens of Wong et al. (2023).
